Test results reported in US20170114151A1 (AstraZeneca / MedImmune, published 2017).

Columns and labels:
[1] = target: T1, EGFR (epidermal growth factor receptor), immobilized in ELISA (UniProt P00533 partial chain, limits assumed); test: ELISA, EGFR coated
T1 construct: Antigen coated on ELISA wells; also called EGF receptor
Protocol: The absorbance at 450 nm was measured using a microtiter plate reader.

Human C1q = target: T2, Human C1q (human, UniProt P02745; P02746; P02747); test: ELISA, antibody coated, human C1q titrated
T2 construct: Human C1q was bought from Cell Sciences (catalog number CRC 162B)

EGFR-Fc = target: T3, EGFR-Fc (UniProt P00533 partial chain, limits assumed); test: BIAcore, biMab-EI immobilized, co-inject of antigens
T3 construct: It is named EGFR-Fc only in the methods paragraph and EGFR elsewhere; not shown: Fc part

Measured: binding result

Chain of Human C1q (P02745 23-245 limits assumed, chain 1 of 3): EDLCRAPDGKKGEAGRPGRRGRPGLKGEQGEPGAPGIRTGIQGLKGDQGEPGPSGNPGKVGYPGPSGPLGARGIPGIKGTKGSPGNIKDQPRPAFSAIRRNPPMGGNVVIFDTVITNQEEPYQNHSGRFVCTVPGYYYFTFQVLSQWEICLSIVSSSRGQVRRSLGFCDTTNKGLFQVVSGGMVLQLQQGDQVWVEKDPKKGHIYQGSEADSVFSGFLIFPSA
Chain of Human C1q (P02746 28-253 limits assumed, chain 2 of 3, further chain): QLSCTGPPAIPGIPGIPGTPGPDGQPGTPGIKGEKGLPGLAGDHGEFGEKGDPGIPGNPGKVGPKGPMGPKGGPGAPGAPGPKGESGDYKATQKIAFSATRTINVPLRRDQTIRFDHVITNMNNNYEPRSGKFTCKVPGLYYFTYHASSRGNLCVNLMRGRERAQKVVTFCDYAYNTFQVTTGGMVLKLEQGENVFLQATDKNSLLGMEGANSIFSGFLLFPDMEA
Chain of Human C1q (P02747 29-245 limits assumed, chain 3 of 3, further chain): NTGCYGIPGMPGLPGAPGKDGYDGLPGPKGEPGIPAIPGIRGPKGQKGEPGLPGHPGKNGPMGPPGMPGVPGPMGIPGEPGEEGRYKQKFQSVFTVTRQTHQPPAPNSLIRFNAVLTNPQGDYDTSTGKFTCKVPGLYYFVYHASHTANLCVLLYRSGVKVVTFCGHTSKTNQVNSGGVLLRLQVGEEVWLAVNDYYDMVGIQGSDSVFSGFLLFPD

B1: biMab-EI (PaniX/Dalo) (bispecific antibody)
heavy: QVQLQESGPGLVKPSETLSLTCTVSGGSVSSGDYYWTWIRQSPGKGLEWIGHIYYSGNTNYNPSLKSRLTISIDTSKTQFSLKLSSVTAADTAIYYCVRDRVTGAFDIWGQGTMVTVSSASTKGPSVFPLAPSSKSTSGGTAALGCLVKDYFPEPVTVSWNSGALTSGVHTFPAVLQSSGLYSLSSVVTVPSSSLGTQTYICNVNHKPSNTKVDKRVEPKSCGKTGGGGSGGGGSDIVMTQSPLSLPVTPGEPASISCRSSQSIVHSNGNTYLQWYLQKPGQSPQLLIYKVSNRLYGVPDRFSGSGSGTDFTLKISRVEAEDVGVYYCFQGSHVPWTFGCGTKVEIKGGGGSGGGGSGGGGSGGGGSQVQLQESGPGLVKPSETLSLTCTVSGYSITGGYLWNWIRQPPGKCLEWIGYISYDGTNNYKPSLKDRVTISRDTSKNQFSLKLSSVTAADTAVYYCARYGRVFFDYWGQGTLVTVSSGGGGSGGGGS[left out - human IgG1 Fc]
light: DIQMTQSPSSLSASVGDRVTITCQASQDISNYLNWYQQKPGKAPKLLIYDASNLETGVPSRFSGSGSGTDFTFTISSLQPEDIATYFCQHFDHLPLAFGGGTKVEIKRTVAAPSVFIFPPSDEQLKSGTASVVCLLNNFYPREAKVQWKVDNALQSGNSQESVTEQDSKDSTYSLSSTLTLSKADYEKHKVYACEVTHQGLSSPVTKSFNRGEC
notes: IgG1 Fc; also called anti-EGFR/IGF1R biMab
binds: all assays above
